Measured values from patent publication US20230183319A1 (published 2023).

T1: BMP9 (UniProt Q9UK05 320-429)
T1 chain: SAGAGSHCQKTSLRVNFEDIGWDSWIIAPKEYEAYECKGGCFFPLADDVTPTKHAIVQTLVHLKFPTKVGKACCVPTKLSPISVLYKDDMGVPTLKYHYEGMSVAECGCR

T2: BMP10 (UniProt O95393 317-424)
T2 chain: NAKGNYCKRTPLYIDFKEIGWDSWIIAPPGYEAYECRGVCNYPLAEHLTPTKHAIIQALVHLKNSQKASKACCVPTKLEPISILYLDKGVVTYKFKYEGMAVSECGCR

T3: BMP6 (UniProt P22004 382-513)
T3 chain: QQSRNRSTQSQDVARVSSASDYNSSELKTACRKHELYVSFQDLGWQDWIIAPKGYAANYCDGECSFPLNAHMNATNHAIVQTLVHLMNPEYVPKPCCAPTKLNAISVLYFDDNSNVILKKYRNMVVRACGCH

B1: ActRIIB(F82S)-G1Fc (Fc fusion)
chain: GRGEAETRECIYYNANWELERTNQSGLERCEGEQDKRLHCYASWRNSSGTIELVKKGCWLDDSNCYDRQECVATEENPQVYFCCCEGNFCNERFTHLPEAGGPEVTYEPPPTAPTG[human IgG1 Fc and a few adjoining residues not shown]
B2: ActRIIB(L57V, F82Y, N83R)-G1Fc (Fc fusion)
chain: GRGEAETRECIYYNANWELERTNQSGLERCEGEQDKRVHCYASWRNSSGTIELVKKGCWLDDYRCYDRQECVATEENPQVYFCCCEGNFCNERFTHLPEAGGPEVTYEPPPTAPTG[human IgG1 Fc and a few adjoining residues not shown]
B3: ActRIIB(L57R, F82S)-G1Fc (Fc fusion)
chain: GRGEAETRECIYYNANWELERTNQSGLERCEGEQDKRRHCYASWRNSSGTIELVKKGCWLDDSNCYDRQECVATEENPQVYFCCCEGNFCNERFTHLPEAGGPEVTYEPPPTAPTG[human IgG1 Fc and a few adjoining residues not shown]
B4: ActRIIB(E52D, F82D, N83R)-G1Fc (Fc fusion)
chain: GRGEAETRECIYYNANWELERTNQSGLERCEGDQDKRLHCYASWRNSSGTIELVKKGCWLDDDRCYDRQECVATEENPQVYFCCCEGNFCNERFTHLPEAGGPEVTYEPPPTAPTG[human IgG1 Fc and a few adjoining residues not shown]
B5: ActRIIB(E52Y, F82D, N83R)-G1Fc (Fc fusion)
chain: GRGEAETRECIYYNANWELERTNQSGLERCEGYQDKRLHCYASWRNSSGTIELVKKGCWLDDDRCYDRQECVATEENPQVYFCCCEGNFCNERFTHLPEAGGPEVTYEPPPTAPTG[human IgG1 Fc and a few adjoining residues not shown]
B6: ActRIIB(L57I, F82E, N83R)-G1Fc (Fc fusion)
chain: GRGEAETRECIYYNANWELERTNQSGLERCEGEQDKRIHCYASWRNSSGTIELVKKGCWLDDERCYDRQECVATEENPQVYFCCCEGNFCNERFTHLPEAGGPEVTYEPPPTAPTG[human IgG1 Fc and a few adjoining residues not shown]
B7: ActRIIB(F82I, E94K)-G1Fc (Fc fusion)
chain: GRGEAETRECIYYNANWELERTNQSGLERCEGEQDKRLHCYASWRNSSGTIELVKKGCWLDDINCYDRQECVATKENPQVYFCCCEGNFCNERFTHLPEAGGPEVTYEPPPTAPTG[human IgG1 Fc and a few adjoining residues not shown]
B8: ActRIIB(L57R, F82E, N83R)-G1Fc (Fc fusion)
chain: GRGEAETRECIYYNANWELERTNQSGLERCEGEQDKRRHCYASWRNSSGTIELVKKGCWLDDERCYDRQECVATEENPQVYFCCCEGNFCNERFTHLPEAGGPEVTYEPPPTAPTG[human IgG1 Fc and a few adjoining residues not shown]
B9: ActRIIB(L57V, F82D, N83R)-G1Fc (Fc fusion)
chain: GRGEAETRECIYYNANWELERTNQSGLERCEGEQDKRVHCYASWRNSSGTIELVKKGCWLDDDRCYDRQECVATEENPQVYFCCCEGNFCNERFTHLPEAGGPEVTYEPPPTAPTG[human IgG1 Fc and a few adjoining residues not shown]
B10: ActRIIB(L57I, F82D, N83R)-G1Fc (Fc fusion)
chain: GRGEAETRECIYYNANWELERTNQSGLERCEGEQDKRIHCYASWRNSSGTIELVKKGCWLDDDRCYDRQECVATEENPQVYFCCCEGNFCNERFTHLPEAGGPEVTYEPPPTAPTG[human IgG1 Fc and a few adjoining residues not shown]
B11: ActRIIB(F82L)-G1Fc (Fc fusion)
chain: GRGEAETRECIYYNANWELERTNQSGLERCEGEQDKRLHCYASWRNSSGTIELVKKGCWLDDLNCYDRQECVATEENPQVYFCCCEGNFCNERFTHLPEAGGPEVTYEPPPTAPTG[human IgG1 Fc and a few adjoining residues not shown]
B12: ActRIIB(E52N, F82I, N83R)-G1Fc (Fc fusion)
chain: GRGEAETRECIYYNANWELERTNQSGLERCEGNQDKRLHCYASWRNSSGTIELVKKGCWLDDIRCYDRQECVATEENPQVYFCCCEGNFCNERFTHLPEAGGPEVTYEPPPTAPTG[human IgG1 Fc and a few adjoining residues not shown]
B13: ActRIIB(L79F, F82D)-G1Fc (Fc fusion)
chain: GRGEAETRECIYYNANWELERTNQSGLERCEGEQDKRLHCYASWRNSSGTIELVKKGCWFDDDNCYDRQECVATEENPQVYFCCCEGNFCNERFTHLPEAGGPEVTYEPPPTAPTG[human IgG1 Fc and a few adjoining residues not shown]
B14: ActRIIB(L79S)-G1Fc (Fc fusion)
chain: GRGEAETRECIYYNANWELERTNQSGLERCEGEQDKRLHCYASWRNSSGTIELVKKGCWSDDFNCYDRQECVATEENPQVYFCCCEGNFCNERFTHLPEAGGPEVTYEPPPTAPTG[human IgG1 Fc and a few adjoining residues not shown]
B15: ActRIIB(L79W)-G1Fc (Fc fusion)
chain: GRGEAETRECIYYNANWELERTNQSGLERCEGEQDKRLHCYASWRNSSGTIELVKKGCWWDDFNCYDRQECVATEENPQVYFCCCEGNFCNERFTHLPEAGGPEVTYEPPPTAPTG[human IgG1 Fc and a few adjoining residues not shown]
B16: ActRIIB(L57R, F82D)-G1Fc (Fc fusion)
chain: GRGEAETRECIYYNANWELERTNQSGLERCEGEQDKRRHCYASWRNSSGTIELVKKGCWLDDDNCYDRQECVATEENPQVYFCCCEGNFCNERFTHLPEAGGPEVTYEPPPTAPTG[human IgG1 Fc and a few adjoining residues not shown]
B17: ActRIIB(E52D, F82T)-G1Fc (Fc fusion)
chain: GRGEAETRECIYYNANWELERTNQSGLERCEGDQDKRLHCYASWRNSSGTIELVKKGCWLDDTNCYDRQECVATEENPQVYFCCCEGNFCNERFTHLPEAGGPEVTYEPPPTAPTG[human IgG1 Fc and a few adjoining residues not shown]
B18: ActRIIB(E52D, F82T, N83R)-G1Fc (Fc fusion)
chain: GRGEAETRECIYYNANWELERTNQSGLERCEGDQDKRLHCYASWRNSSGTIELVKKGCWLDDTRCYDRQECVATEENPQVYFCCCEGNFCNERFTHLPEAGGPEVTYEPPPTAPTG[human IgG1 Fc and a few adjoining residues not shown]

How the values were obtained:
BMP9 = target: T1, BMP9; assay: SPR; 37 C
BMP10 [1] = target: T2, BMP10; assay: SPR; 37 C
BMP6 = target: T3, BMP6; assay: SPR; 37 C
BMP10 [2] = target: T2, BMP10; assay: SPR; 37 C; transient binding

| Binder | Kd (BMP9) | Kd (BMP10 [1]) | Kd (BMP6) | Kd (BMP10 [2]) |
| --- | --- | --- | --- | --- |
| B1 | 0.463 nM | 0.0116 nM | 0.518 nM | – |
| B2 | – | 0.213 nM | 16 nM | – |
| B3 | 1.18 nM | 0.0765 nM | 1.29 nM | – |
| B4 | – | 0.354 nM | 5.15 nM | – |
| B5 | 1.09 nM | 0.031 nM | – | – |
| B6 | – | 0.169 nM | 2.88 nM | – |
| B7 | 0.961 nM | 0.0219 nM | 2.06 nM | – |
| B8 | – | – | 23 nM | 13.9 nM |
| B9 | – | – | 5.04 nM | 2.47 nM |
| B10 | – | 0.576 nM | 10.9 nM | – |
| B11 | 0.446 nM | 0.0135 nM | 0.332 nM | – |
| B12 | – | 0.0585 nM | – | – |
| B13 | 0.118 nM | 0.0207 nM | 0.106 nM | – |
| B14 | 0.42 nM | 0.153 nM | 1.25 nM | – |
| B15 | 0.102 nM | 0.00875 nM | 0.0338 nM | – |
| B16 | 1.1 nM | – | 2.55 nM | 1.41 nM |
| B17 | 0.658 nM | 0.016 nM | 0.635 nM | – |
| B18 | – | 0.0561 nM | 2.5 nM | – |
